In all, about 410,000 compounds went through this assay and about 5,000 (1.2%) were called active. Inconclusive results, whose numbers are uncertain, are shown with a selection of clear calls. Calls come from the whole dose curve; as a rule, active = well fitted inhibition curve with a large enough effect; inconclusive = small, poorly fitted or top-dose-only effect; inactive = no such curve, though single readings can be large or run the other way. A potency beside an inconclusive call is a rough fit, not a confirmed value.
Test: qHTS for Inhibitors of TGF-b; note: nearly all actives have a fitted effect of over 65% in size
Conditions: HepG2 CAGA-GFP TGF-b/SMAD3 reporter, GFP fluorescence, 18 h, TGF-beta stimulated, 500 pg/mL final; series mostly up to 46.1 µM
In short: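 Per well, imaged GFP fluorescence of HEPG2 CAGA-GFP cells gives the signal; cells get compound, then TGF-beta (500 pg/mL final), 18 h at 37 degrees C; %Activity versus -TGF-beta and +DMSO controls.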
Potency is the fitted concentration of half-maximal effect; tags give direction and shape of the fitted curve.

Row | SMILES | Potency
1 | COc1ccccc1NC(=S)N(Cc1ccco1)Cc1cc2cc(C)cc(C)c2[nH]c1=O | inactive
2 | Cc1cccc(NC(=S)NC2CC3CCCC(C2)N3Cc2ccccc2)c1C (configuration not stated) | inconclusive: 20 µM [inhibitor, single point]
3 | Cc1cc(=O)[nH]c(N/N=C/c2cc(C)n(CC(F)(F)F)c2C)n1 | inconclusive: 2.24 µM [inhibitor, full curve, poor fit]
4 | Cc1ccc(NC(=O)COc2coc(CN3CCc4ccccc43)cc2=O)c(C)c1 | inactive
5 | COCCNC(=O)C1CCN(c2nc3ccccc3nc2C(F)(F)F)CC1 | inconclusive: 35.5 µM [inhibitor, single point]
6 | CCc1ccccc1NC(=O)c1ccc(CN2C(=O)CCn3nc(C)cc32)cc1 | inconclusive: 0.1 µM [inhibitor, full curve, poor fit]
7 | CC1CCN(c2ccccc2NC(=S)NC(=O)C(C)(C)C)CC1 | inconclusive: 11.2 µM [inhibitor, single point]
8 | Cc1ccc(N2CCN(S(=O)(=O)c3ccc(Cl)s3)CC2C)cc1 (configuration not stated) | inconclusive: 5.01 µM [inhibitor, single point]
9 | CCCCOc1ccccc1C1C(C(=O)OC)=C(C)N(C)C(C)=C1C(=O)OC | inconclusive: 3.98 µM [inhibitor, single point]
10 | COc1cccc(NC(=O)C2(C)CCN2Cc2ccc(-c3ccccc3)o2)c1 (configuration not stated) | inconclusive: 14.1 µM [inhibitor, single point]
11 | COC(=O)c1ccccc1NC(=O)C1CCN(C(=O)c2ccc(OC)cc2)CC1 | inactive
12 | C=CC[C@H]1C(C(=O)OCC)=CC[C@@H](c2ccccc2)N1S(=O)(=O)c1ccc(C)cc1 | inconclusive: 22.4 µM [inhibitor, single point]
13 | CC(NC(=O)COC(=O)C1CSC2(C)CCC(=O)N12)C12CC3CC(CC(C3)C1)C2 (configuration not stated) | inactive
14 | Cc1ccccc1Cn1nc(C)c(NC(=O)c2nc3n(n2)C(C(F)F)CC(C)N3)c1C (configuration not stated) | inconclusive: 35.5 µM [inhibitor, single point]
15 | CCOc1cccc(C2CC(=O)Nc3cc4c(cc32)OCCO4)c1 (configuration not stated) | inactive
16 | Cc1ccc(C(=O)Nc2ccc(C(=O)N/N=C/c3c[nH]c4ccccc34)cc2)cc1 | inconclusive: 3.16 µM [inhibitor, single point]
17 | Cn1c(CSc2nnc(SCc3ccccc3)s2)nc2ccccc21 | inconclusive: 3.98 µM [inhibitor, partial curve, poor fit]
18 | O=C(/C=C/c1ccccc1Br)c1ccc2c(c1)OCO2 | inconclusive: 35.5 µM [inhibitor, single point]
19 | CCc1ccc(NS(=O)(=O)c2c(C)nc3sc(CC)nn3c2=O)cc1 | inactive
20 | CC(C)(C)[C@H]1CCC(=O)N(CCSc2ccc(Br)cc2)CC1 | inconclusive: 22.4 µM [inhibitor, single point]
21 | COc1ccc(CCNC(=O)C2CCN(c3nc4ccccc4nc3C(F)(F)F)CC2)c(OC)c1 | inconclusive: 5.01 µM [inhibitor, partial curve, poor fit]
22 | COc1ccc(Br)cc1CN1CCCCCCC1 | inactive
23 | COc1ccc(C(NC(=O)C2CCN(Cc3ccc(Oc4ccccc4)cc3)CC2)c2ccccn2)cc1 (configuration not stated) | inconclusive: 35.5 µM [inhibitor, single point]

Row | SMILES | Potency
24 | O=C(C1CCCCC1)N1CCCC(c2nc3c(nnn3Cc3ccccc3)c(=O)[nH]2)C1 (configuration not stated) | inconclusive: 0.794 µM [inhibitor, full curve]
25 | O=C(O)CCC(=O)Nc1cccc(-c2csc(-c3ccccc3)n2)c1 | inactive
26 | O=C(c1cccc(NS(=O)(=O)c2ccc(F)c(F)c2)c1)N1CCN(C(c2ccccc2)c2ccccc2)CC1 | inconclusive: 35.5 µM [inhibitor, single point]
27 | COc1cc(OC)c(/C=C/c2nccc3ccccc23)c(OC)c1 | inconclusive: 17.8 µM [inhibitor, partial curve, poor fit]
28 | COC(=O)c1cc2nc(-c3ccccc3)cc(C)n2n1 | inconclusive: 6.31 µM [inhibitor, single point]
29 | COc1nc(Nc2cccc(C)c2)nc(N2CCCCC2)n1 | inconclusive: 35.5 µM [inhibitor, single point]
30 | Cc1cccc(N(CC(O)CN2CCCC2)S(=O)(=O)c2ccccc2)c1 (configuration not stated) | inactive
31 | O=C(NCCC1CCCCN1S(=O)(=O)c1ccc(Cl)cc1)C(=O)NCCN1CCOCC1 (configuration not stated) | inconclusive: 3.98 µM [inhibitor, full curve, poor fit]
32 | CCCCN1C(=O)C(CC(=O)NC2CCCC2)CC(C(=O)N2CCOCC2)=C1C (configuration not stated) | inactive
33 | COc1ccc(CNc2nc3ccccc3c3nc(-c4ccccc4)nn23)cc1 | inconclusive: 6.31 µM [inhibitor, full curve, poor fit]
34 | Cc1cc(-c2ccccc2)nc(SCc2ccc(C(=O)O)o2)n1 | inconclusive: 0.112 µM [inhibitor, full curve, poor fit]
35 | O=C(NC(Cc1c[nH]c2ccccc12)C(=O)N/N=C/c1ccc(Cl)cc1)c1cccs1 (configuration not stated) | inconclusive: 14.1 µM [inhibitor, partial curve]
36 | Cc1ccc(S(=O)(=O)N(CC(=O)NCCc2ccc(Cl)cc2)c2ccccc2C)cc1 | inconclusive: 22.4 µM [inhibitor, single point]
37 | COc1ccc(CCNC(=O)c2cnn(-c3ccc(F)cc3)c2C2CCN(C(=O)OC(C)(C)C)CC2)c(OC)c1 | inconclusive: 35.5 µM [inhibitor, single point]
38 | CN(CC(=O)Nc1ccc(F)c(F)c1F)C(=O)CC1CCCCC1 | inconclusive: 35.5 µM [inhibitor, single point]
39 | COc1cccc(C(c2c(NC(=O)c3ccco3)sc(C)c2C)N2CCOCC2)c1 (configuration not stated) | inconclusive: 35.5 µM [inhibitor, single point]
40 | CCOc1ccc(S(=O)(=O)n2cc(-c3ccc(F)cc3)c(N)n2)cc1 | inactive
41 | COc1ccc(N2CCN(c3ncnc4scc(-c5ccc(F)cc5)c34)CC2)cc1 | inconclusive: 12.6 µM [inhibitor, single point]
42 | CC1(C)CC(=O)C(N=Nc2cc(Cl)c(Cl)c(Cl)c2)=C(O)C1 | inactive
43 | COc1ccc(CCNC(=O)Cc2c(C)c3c(cc(C)c4c(C)c(C)oc43)oc2=O)cc1 | inactive
44 | N#CCCn1cc(/C=N/O)c(-c2cccc([N+](=O)[O-])c2)n1 | inconclusive: 6.31 µM [inhibitor, single point]
45 | COc1ccc(C2C(C#N)=C(N)N(Nc3ccccc3)C3=C2C(=O)CC(C)(C)C3)cc1C (configuration not stated) | active: 11.2 µM
46 | CC(=O)c1ccc(N2CCN(c3ncnc4c3nc3n4CCCC3)CC2)cc1 | inconclusive: 8.91 µM [inhibitor, partial curve, poor fit]

Row | SMILES | Potency
47 | Cc1ccc(C(=O)Nc2nc(COc3ccccc3)cs2)s1 | inactive
48 | CCOC(=O)C1=CC[C@@H](c2ccccc2)N(S(=O)(=O)c2ccc(C)cc2)[C@H]1/C=C/c1ccccc1 | inconclusive: 11.2 µM [inhibitor, partial curve, poor fit]
49 | CCCCCCSc1cc(-c2nc3cnccn3c2NCc2ccccc2)ccc1OC | inconclusive: 20 µM [inhibitor, single point]
50 | COc1ccc(-c2noc(CCC(=O)Nc3ccc(C(F)(F)F)cc3)n2)cc1 | inactive
51 | Cc1ccccc1CNC(=O)CN1C(=O)CSc2ccc(S(=O)(=O)N(C)C)cc21 | inconclusive: 12.6 µM [inhibitor, partial curve, poor fit]
52 | O=C(CN1C(=O)C2C3C=CC(C3)C2C1=O)OCC(=O)c1ccc([N+](=O)[O-])cc1 (configuration not stated) | inactive
53 | O=C1C2CCCCN2C(=O)N1CCN1CCN(c2cccc(Cl)c2)CC1 (configuration not stated) | inactive
54 | O=C1CC(NS(=O)(=O)c2ccc([N+](=O)[O-])cc2)CN1c1ccc(Cl)cc1 (configuration not stated) | inactive
55 | Cc1cccc(N2CCN(C3=NC(=O)/C(=C\c4cn[nH]c4-c4ccccc4)S3)CC2)c1 | inactive
56 | O=C1NCC(c2ccccc2)C1C(=O)N/N=C\c1ccc(-c2ccc(Cl)c(Cl)c2)o1 (configuration not stated) | inconclusive: 17.8 µM [inhibitor, single point]
57 | CC(C)(C)OC(=O)[C@H](Cc1ccccc1)NC(=O)c1[nH]cnc1C(=O)N[C@@H](Cc1ccccc1)C(=O)OCc1ccccc1 | inconclusive: 7.08 µM [inhibitor, full curve, poor fit]
58 | COc1ccc2nc(NC(=O)CSc3nccc(C)n3)sc2c1 | inactive
59 | Cc1ccc2nc(-c3cccc(S(=O)(=O)N4CC(C)OC(C)C4)c3)cn2c1 (configuration not stated) | inconclusive: 22.4 µM [inhibitor, single point]
60 | O=C(NCCC1=CCCCC1)c1ccc2c(=O)n3nc(Nc4ccccc4)sc3nc2c1 | inactive
61 | COc1ccccc1C(=O)C(O)c1ccccc1OC (configuration not stated) | inconclusive: 35.5 µM [inhibitor, single point]
62 | CCN(CC)S(=O)(=O)c1ccc2c(c1)C(=NO)c1cc(S(=O)(=O)N(CC)CC)ccc1-2 | inconclusive: 7.94 µM [inhibitor, partial curve, poor fit]
63 | O=C(Nc1cccnc1)c1ccccc1F | inactive
64 | CN(C)c1nc(=Nc2cccc(Cl)c2)ss1 | active: 0.282 µM
65 | CCc1nc2ccc(C(=O)N(CC)CCN(C)C)cn2c1N(CC)C(=O)NCCc1ccccc1 | inactive
66 | O=C(Nc1ccccc1C(F)(F)F)c1ccc2oc(=O)c(S(=O)(=O)c3ccc(F)cc3)cc2c1 | inconclusive: 35.5 µM [inhibitor, single point]
67 | CCCCOc1ccc(S(=O)(=O)NNC(=O)c2cc3ccccc3o2)cc1 | inconclusive: 10 µM [inhibitor, partial curve, poor fit]

Source: PubChem BioAssay AID588855 (National Center for Advancing Translational Sciences (NCATS), 2011)
